PubChem BioAssay AID360 (National Center for Advancing Translational Sciences (NCATS), 2006)
Hit rate of the full screen: of about 48,000 compounds, about 550 (1.1%) were called active. Another 4% or so got no clear call; they are omitted. Rule as the data show it: active = potency below about 15 µM; inconclusive = mostly about 16 µM to 33 µM; inactive = weaker than that. This is one part of the list.

Each molecule was assayed against Lysosomal acid glucosylceramidase (Homo sapiens) (UniProt P04062) (assay: Glucocerebrosidase). Details: purified enzyme, resorufin glucoside fluorescence (screen aimed at inhibitors), 20 min.
Sequence of UniProt P04062 (P04062 whole entry, looked up): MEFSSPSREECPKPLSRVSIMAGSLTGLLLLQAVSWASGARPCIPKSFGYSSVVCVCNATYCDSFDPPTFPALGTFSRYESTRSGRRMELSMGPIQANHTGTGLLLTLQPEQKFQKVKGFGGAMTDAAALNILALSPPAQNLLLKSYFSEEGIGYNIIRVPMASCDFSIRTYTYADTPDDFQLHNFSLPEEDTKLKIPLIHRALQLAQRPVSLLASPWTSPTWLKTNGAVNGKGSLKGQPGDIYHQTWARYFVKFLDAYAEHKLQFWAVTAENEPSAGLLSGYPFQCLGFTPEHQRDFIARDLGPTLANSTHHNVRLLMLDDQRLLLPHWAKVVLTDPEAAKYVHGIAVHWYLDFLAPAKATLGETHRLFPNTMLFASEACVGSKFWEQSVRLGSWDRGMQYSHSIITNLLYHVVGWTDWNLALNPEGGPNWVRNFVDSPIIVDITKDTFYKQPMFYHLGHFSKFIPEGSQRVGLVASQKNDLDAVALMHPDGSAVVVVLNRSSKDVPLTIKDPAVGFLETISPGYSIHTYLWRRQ
Summary of the method: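 Wild-type enzyme at 0.2 nM final in 50mM citric acid/KH2PO4, 10mM sodium taurocholate, 0.01% tween-20, pH 5.9, with resorufin beta-D-glucopyranoside at 30 uM final. Compounds titrated, 20 min at RT, red fluorescence read; AC50 from titration.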
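Also: the screen sought inhibitors.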
Potency is read from the fitted curve at half-maximal effect.

Potency, inactive:
CN(C)c1nc(N)nc(CSc2nnnn2-c2cccc3ccccc23)n1 > 76.9 µM
CNC(=O)CSc1nnc(-c2ccc(S(=O)(=O)N3CCCC3)cc2)n1-c1cccc(C)c1C > 76.9 µM
O=c1/c(=C/c2cccc3ccccc23)sc2ncnn12 > 76.9 µM
CC(C)N1CC2=C(OC(N)=C(C#N)C2c2cccnc2)/C(=C/c2cccnc2)C1 (stereo not given) > 76.9 µM
Cc1ccc(N2CCN(C(=O)C3CCN(S(=O)(=O)c4cccc5nsnc45)CC3)CC2C)cc1 (stereo not given) > 76.9 µM
O=C1NC(c2ccccc2)C(C(=O)c2cccs2)=C1O (stereo not given) > 76.9 µM
CCn1c(CCNC(=O)c2ccc(OC)c(OC)c2)nc2ccccc21 > 76.9 µM
COc1ccc2c(CCNC(=O)c3ccco3)c[nH]c2c1 > 76.9 µM
O=C(CCCNS(=O)(=O)c1cccc2nsnc12)NCc1ccc(F)cc1 > 76.9 µM
O=C(c1ccco1)N1CCN(C(=O)c2cccn3c(=O)c4c5c(sc4nc23)CCCC5)CC1 > 76.9 µM
O=C(NCc1ccccc1F)c1cccs1 > 76.9 µM
CC1(C)N=C(c2ccc(Cl)cc2)C(=O)N1 > 76.9 µM
COc1ccc(S(=O)(=O)CCC(=O)N2CC(=O)N(CCc3ccccc3)C(=O)C2)cc1 > 76.9 µM
COC(=O)c1nc2n(n1)C(c1ccc(OC)c(OC)c1OC)C1=C(CCCC1=O)N2 (stereo not given) > 76.9 µM
O=C(NCCCN1CCOCC1)c1cc2cc(Br)ccc2oc1=O > 76.9 µM
Cc1ccc(-n2cnnn2)c(S(=O)(=O)N2CCOCC2)c1 > 76.9 µM
Cc1ccc(CN2C(=O)CCC2C(=O)NCCN2CCN(c3cccc(Cl)c3)CC2)cc1 (stereo not given) > 76.9 µM
CC1CCN(C(=O)CN2C(=O)C(C)(C)Oc3ccc(C(=O)NC4CCCC4)cc32)CC1 > 76.9 µM
c1csc(C(c2nnnn2C2CCCC2)N2CCOCC2)c1 (stereo not given) > 76.9 µM
COC(=O)Cc1ccc(NC(=O)c2cccs2)cc1 > 76.9 µM
COc1ccc(CCNC(=O)CSc2nnc(CNC(=O)c3cccs3)o2)cc1OC > 76.9 µM
CCN(CC)CCNCc1ccc(-c2ccc(Cl)cc2)o1 > 76.9 µM
Cn1nc(-c2ccc(C(=O)NCC3CCCO3)cc2)c2ccccc2c1=O (stereo not given) > 76.9 µM
CCC(c1nnc(SCC(=O)Nc2ccc(C(=O)Nc3ccccc3OC)cc2)o1)N(C)C (stereo not given) > 76.9 µM
COc1cc(C(=O)N(CCCO)Cc2cc3ccc(C)c(C)c3[nH]c2=O)cc(OC)c1OC > 76.9 µM
CC(Sc1nnnn1C)C(=O)Nc1ccc(N2CCOCC2)cc1 (stereo not given) > 76.9 µM
CCCn1c(SCC(=O)N2CCN(S(=O)(=O)c3ccc(Cl)cc3)CC2)n[nH]c1=O > 76.9 µM
CC1CCCC(C)N1C(=O)COC(=O)c1ccc2c(c1)OCO2 (stereo not given) > 76.9 µM
Cc1ccc(N2CC(C(=O)Nc3ccc4c(c3)OCCO4)CC2=O)cc1 (stereo not given) > 76.9 µM
O=C(Nc1ccc2c(c1)CCC2)C1CCN(c2ncccn2)CC1 > 76.9 µM
CCS(=O)(=O)N1CCCC(C(=O)NCCN2CCC(Cc3ccccc3)CC2)C1 (stereo not given) > 76.9 µM
COc1nc2ccccc2c(=O)n1OCC(C)C > 76.9 µM
COc1ccc(C(=O)Nc2ccc(S(=O)(=O)NCc3ccco3)cc2)cc1OC
Cn1c(=O)[nH]c(=O)c2c1nc(N1CCOCC1)n2CCCSc1ncccn1 > 76.9 µM
Cc1cc(Nc2nc3c(c(=O)n(C)c(=O)n3C)n2C)n(-c2ccccc2)n1 > 76.9 µM
O=C(CSc1nnc2scc(-c3ccccc3)n12)N1CCN(Cc2ccccc2)CC1 > 76.9 µM
C=CCn1c(=N)c(C(=O)OC)cc2c(=O)n3cccc(C)c3nc21 > 76.9 µM
CCOCCCNC(=O)CCCOc1ccccc1 > 76.9 µM
O=C(Nc1ccc(CN2CCOCC2)cc1)c1cccc(F)c1 > 76.9 µM
CCOC(=O)N1CCN(S(=O)(=O)c2cc(Br)cnc2N)CC1 > 76.9 µM
COc1cccc(-n2nnc3c(=O)n(CC(=O)N4CCC(C)CC4)cnc32)c1 > 76.9 µM
Cc1nc(Nc2ccc3c(c2)OCCO3)c2oc3ccccc3c2n1 > 76.9 µM
Cc1cccc(N(C)C(=O)CCS(=O)(=O)c2cccc3nonc23)c1 > 76.9 µM
Cn1cnc2c1c(=O)n(Cc1ccc(F)cc1Cl)c(=O)n2C > 76.9 µM
Cc1ccc2oc(-c3ccc(NC(=O)c4cccnc4)cc3)nc2c1 > 76.9 µM
COCCNC(=O)COc1cccc(Oc2ccccc2)c1 > 76.9 µM
O=C1c2cccc3c(Cl)ccc(c23)C(=O)N1O > 76.9 µM
CCOc1ccc(N(CC(=O)Nc2ccc(OC)cc2)S(C)(=O)=O)cc1 > 76.9 µM
CCOc1ccc(-c2nnn(CC(=O)N3CCN(c4ccc(F)cc4)CC3)n2)cc1OCC > 76.9 µM
CCOC(=O)CNC(=O)CN1C(=O)CCS(=O)(=O)c2ccccc21 > 76.9 µM
O=C(CCN1C(=O)c2ccccc2C1=O)OCn1nnc2ccccc2c1=O > 76.9 µM
CCOC(=O)c1csc(NC(=O)c2ccc(OC)c(OC)c2)n1 > 76.9 µM
Cn1c(SCc2ccccn2)nnc1-c1cnccn1 > 76.9 µM
Cc1ccc(NC(=O)NC2CCCCC2)cc1Cl > 76.9 µM
COc1cc2c(C(=O)Nc3ccc4c(c3)OCO4)cn(CC(C)C)c(=O)c2cc1OC > 76.9 µM
COc1ccc(-n2c(=O)c3ccccc3n(CC(=O)NC3CCCC3)c2=O)cc1 > 76.9 µM
COc1ccc(C2(C(=O)Nc3cc(C)on3)CCOCC2)cc1 > 76.9 µM
CS(=O)(=O)NCC(c1cccnc1)N1CCN(c2ccc(F)cc2)CC1 (stereo not given) > 76.9 µM
CC(C)(C)/C(O)=C(/C#N)c1nc2ccccc2[nH]1 > 76.9 µM
CCCOc1cc(C)c(S(=O)(=O)NCCOC)cc1C > 76.9 µM
COc1ccccc1CNC(=O)c1c(O)c2cc(OC)c(OC)cc2[nH]c1=O > 76.9 µM
COc1ccc(N(C(=O)c2ccco2)S(=O)(=O)c2cccs2)cc1 > 76.9 µM
Cc1ccc(NC(=O)CN(C)C(=O)CN2C(=O)NC(C)(c3ccccc3)C2=O)cc1 (stereo not given) > 76.9 µM
Cc1nn(Cc2ccc(F)cc2)c(C)c1NC(=O)c1cnn2cccnc12 > 76.9 µM
C=CCn1c(SCC(=O)NCC2CCCO2)nnc1C1CCCCC1 (stereo not given) > 76.9 µM
Cc1cc(Cl)c(S(=O)(=O)N2CCCCCC2)cc1OCC(N)=O > 76.9 µM
COC(=O)c1cc(/C=C/c2ccccc2)on1 > 76.9 µM
c1ccc(C2COC(c3cccs3)=N2)cc1 (stereo not given) > 76.9 µM
COc1cccc(NC(=O)c2ccccc2-c2nc(-c3ccc(Cl)cc3)no2)c1 > 76.9 µM
CCn1c(SCC(=O)c2ccc(OC)cc2)nnc1C(C)NC(=O)c1ccc(OC)cc1 (stereo not given) > 76.9 µM
CC1(C)C(=O)OC(c2c(F)c(F)c(F)c(F)c2F)C2(CCCCC2)C1=O (stereo not given) > 76.9 µM
CCC(Oc1ccccc1)C(=O)N1CC(C)CC(C)C1 (stereo not given) > 76.9 µM
CCN(CCCNC(=O)COc1cc(=O)n(CC)c2ccccc12)c1ccccc1 > 76.9 µM
Cc1ccc2cc(CN(CC3CCCO3)C(=O)NC3CCCCC3)c(=O)[nH]c2c1C (stereo not given) > 76.9 µM
O=C(CCCCCN1C(=O)c2ccccc2C1=O)NCc1ccco1 > 76.9 µM
O=C(NCc1ccccc1)c1cc(-n2cnnc2)ccc1Cl > 76.9 µM
Cc1noc(C)c1S(=O)(=O)NCC(=O)O > 76.9 µM
COCCn1c(C)nc2oc3ccc(Br)cc3c(=O)c2c1=O > 76.9 µM
COc1ccc(NC(=O)CN2CCN(C3c4ccccc4-c4ccccc43)CC2)c(OC)c1 > 76.9 µM
Cc1ccc(CCNC(=O)C2CCCN(c3nc4ccccc4o3)C2)cc1 (stereo not given) > 76.9 µM
Nc1nc(-c2cccc(NS(=O)(=O)c3ccccc3)c2)cs1
COc1ccc2[nH]c(=O)c(CN(Cc3nnnn3Cc3ccccc3)CC3CCCO3)cc2c1 (stereo not given) > 76.9 µM
COc1ccc(Cl)c(S(=O)(=O)N2CCCC2)c1 > 76.9 µM
CCN(CCCNC(=O)COc1cc(=O)n(C)c2ccccc12)c1ccccc1 > 76.9 µM
CC1Cc2ccccc2N1C(=O)CSC1=NCCS1 (stereo not given) > 76.9 µM
CN(C(=O)CN1C(=O)c2ccccc2S1(=O)=O)c1ccccc1C(=O)O > 76.9 µM
NC(=O)C1CCC(NC(=O)OCc2ccccc2)CC1 (stereo not given) > 76.9 µM
COc1ccc2nc(Nc3ccc4c(c3)OCO4)sc2c1 > 76.9 µM
N#Cc1nc(-c2ccccc2)oc1NCCN1CCCCC1 > 76.9 µM
COc1cccc(CNC(=O)C2CCN(S(=O)(=O)c3cnc[nH]3)CC2)c1 > 76.9 µM
